At least one structure is not confirmed: it was looked up by name or label, or the drawing left a doubt. Where a SMILES comes first, the peptide text is derived from it. [ ]: non-standard residue; d: D form. The star is where a group is joined. ξ: configuration not given here. Succinyl(4-O-cholesteryl) = CC(C)CCC[C@@H](C)[C@H]1CC[C@H]2[C@@H]3CC=C4C[C@@H](OC(=O)CCC(=O)*)CC[C@]4(C)[C@H]3CC[C@]12C; ξD = NC(CC(=O)O)C(=O)O
Assays:
[1] = molecular target: T1, hPIV-N51 (139-189) (Human parainfluenza 3 virus, UniProt P06828); assay: SPR affinity to hPIV-N51 coupled on CM5 chip; settings: read-out: hPIV affinity KD, 25° C., 1:1 binding model
T1 construct: hPIV-N51 (139-189)
Description: (§1) hMPV and hPIV were two viruses having a typical Class I fusion protein-F protein. An F protein precursor F0 was cracked into F1 and F2 subunits. […] When the compound flowed through a chip surface, changes in an SPR signal were monitored in real time, binding and dissociation processes were recorded, and a binding rate constant (ka) and a dissociation rate constant (kd) were further obtained through kinetic analysis, thereby calculating an equilibrium dissociation constant (KD=kd/ka).
(§2) A CM5 chip with a catalog number 29149603, an amino coupling reagent kit with a catalog number BR100050, HBS-EP+Buffer (10×), sodium acetate (pH 4.0), and a 10 mM glycine-HCl buffer (pH 2.0) were all purchased from GE Health.
(§3) CM5 chip coupling: Channels 2 and 4 of the CM5 chip were activated for 7 min by using a freshly-prepared mixture of 50 mM Hydroxy succinimide (NHS) and 200 mM 1-(3-Dimethylaminopropyl)-3-ethylcarbodiimide (EDC) according to 1:1; and then, hMPV-N46 or hPIV-N51 was diluted and dissolved with sodium acetate with 4.0 pH to a concentration of 30 μM, with a flow rate of 10 μl/min and time of 600 s. An experimental buffer was HBS-EP+buffer (1×). Finally, the chip was blocked with 1 M ethanolamine. The instrument was set to a temperature of 25° C.
(§4) Affinity detection: the buffer used in the experiment was HBS-EP+buffer (1×), and a multi-cycle dynamic mode was used. Channels 1 and 3 of the chip served as blank reference channels; polypeptides to be detected sequentially flowed through Channels 2 and 4 at concentrations of 0 μM, 0.04 µM, 0.12 µM, 0.37 μM, 1.11 µM, 3.33 µM, 10 µM, and 30 μM; the flow rate was 30 μl/min, binding was performed for 180 s, and dissociation was performed for 120 s. Finally, the chip was regenerated by injecting 10 mM glycine (pH 2.0). The instrument was set to a temperature of 25° C.

[2] = molecular target: T2, hMPV-N46 (127-172) (Human metapneumovirus, UniProt Q6WB98); assay: SPR affinity to hMPV-N46 coupled on CM5 chip; settings: read-out: hMPV affinity KD, 25° C., 1:1 binding model
T2 construct: hMPV-N46 (127-172)
Description: as §1, §2, §3, §4

T2 sequence (Q6WB98 127-172): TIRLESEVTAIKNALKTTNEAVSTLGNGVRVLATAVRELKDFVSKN
T1 sequence (P06828 139-189): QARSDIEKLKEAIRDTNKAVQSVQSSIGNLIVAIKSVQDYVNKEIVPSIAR

| SMILES | Kd [1] [µM] | Kd [2] [µM] |
| --- | --- | --- |
| CC[C@H](C)[C@H](NC(=O)[C@H](CCCCN)NC(=O)[C@H](CCCCN)NC(=O)[C@H](CC(C)C)NC(=O)[C@H](CO)NC(=O)[C@H](CCC(=O)O)NC(=O)[C@H](CCC(=O)O)NC(=O)[C@@H](NC(=O)[C@H](CCCCN)NC(=O)[C@H](CCCCN)NC(=O)[C@H](CC(N)=O)NC(=O)[C@@H](NC(=O)[C@H](CCC(=O)O)NC(=O)[C@H](CCC(=O)O)NC(=O)[C@@H](NC(=O)[C@H](CCCCN)NC(=O)[C@H](CCCCN)NC(=O)[C@H](CC(=O)O)NC(=O)[C@H](Cc1ccccc1)NC(=O)[C@H](CCC(=O)O)NC(=O)C(CC(=O)O)NC(C)=O)[C@@H](C)CC)C(C)C)[C@@H](C)CC)C(=O)N[C@@H](CCC(=O)O)C(=O)N[C@@H](CCC(=O)O)C(=O)N[C@@H](CO)C(=O)N[C@@H](CC(=O)O)C(=O)N[C@@H](CCCCN)C(=O)N[C@@H](CCCCN)C(=O)N[C@@H](CC(C)C)C(=O)N[C@@H](CCC(=O)O)C(=O)N[C@@H](CCC(=O)O)C(=O)N[C@H](C(=O)N[C@@H](CC(N)=O)C(=O)N[C@@H](CCC(=O)O)C(=O)N[C@@H](C)C(=O)N[C@@H](C)C(=O)N[C@@H](C)C(=O)N[C@@H](CCCCN)C(=O)N[C@@H](CCCCNC(=O)CCC(=O)O[C@H]1CC[C@@]2(C)C(=CC[C@H]3[C@@H]4CC[C@H]([C@H](C)CCCC(C)C)[C@@]4(C)CC[C@@H]32)C1)C(N)=O)C(C)C (some centres unmarked) [Compound 14] (Ac-[ξD]EFDKKIEEVNKKIEESLKKIEESDKKLEEVNEAAAKK(Succinyl(4-O-cholesteryl))-NH2) | 0.495 | 0.0478 |
| CC[C@H](C)[C@H](NC(=O)[C@H](CCCCN)NC(=O)[C@H](CCCCN)NC(=O)[C@H](CC(C)C)NC(=O)[C@H](CO)NC(=O)[C@H](CCC(=O)O)NC(=O)[C@H](CCC(=O)O)NC(=O)[C@@H](NC(=O)[C@H](CCCCN)NC(=O)[C@H](CCCCN)NC(=O)[C@H](CC(N)=O)NC(=O)[C@@H](NC(=O)[C@H](CCC(=O)O)NC(=O)[C@H](CCC(=O)O)NC(=O)[C@@H](NC(=O)[C@H](CCCCN)NC(=O)[C@H](CCCCN)NC(=O)[C@H](CC(=O)O)NC(=O)[C@H](Cc1ccccc1)NC(=O)[C@H](CCC(=O)O)NC(=O)C(CC(=O)O)NC(C)=O)[C@@H](C)CC)C(C)C)[C@@H](C)CC)C(=O)N[C@@H](CCC(=O)O)C(=O)N[C@@H](CCC(=O)O)C(=O)N[C@@H](CO)C(=O)N[C@@H](CC(=O)O)C(=O)N[C@@H](CCCCN)C(=O)N[C@@H](CCCCN)C(=O)N[C@@H](CC(C)C)C(=O)N[C@@H](CCC(=O)O)C(=O)N[C@@H](C)C(=O)N[C@@H](C)C(=O)N[C@@H](C)C(=O)N[C@@H](CCCCN)C(=O)N[C@@H](CCCCNC(=O)CCC(=O)O[C@H]1CC[C@@]2(C)C(=CC[C@H]3[C@@H]4CC[C@H]([C@H](C)CCCC(C)C)[C@@]4(C)CC[C@@H]32)C1)C(N)=O (some centres unmarked) [Compound 17] (Ac-[ξD]EFDKKIEEVNKKIEESLKKIEESDKKLEAAAKK(Succinyl(4-O-cholesteryl))-NH2) | 0.314 | 0.04 |
| CC[C@H](C)[C@H](NC(=O)[C@H](CCCCN)NC(=O)[C@H](CCCCN)NC(=O)[C@H](CC(C)C)NC(=O)[C@H](CO)NC(=O)[C@H](CCC(=O)O)NC(=O)[C@H](CCC(=O)O)NC(=O)[C@@H](NC(=O)[C@H](CCCCN)NC(=O)[C@H](CCCCN)NC(=O)[C@H](CC(N)=O)NC(=O)[C@@H](NC(=O)[C@H](CCC(=O)O)NC(=O)[C@H](CCC(=O)O)NC(=O)[C@@H](NC(=O)[C@H](CCCCN)NC(=O)[C@H](CCCCN)NC(=O)[C@H](CCCCN)NC(=O)[C@H](CC(=O)O)NC(=O)[C@H](Cc1ccccc1)NC(=O)[C@H](CCC(=O)O)NC(=O)C(CC(=O)O)NC(C)=O)[C@@H](C)CC)C(C)C)[C@@H](C)CC)C(=O)N[C@@H](CCC(=O)O)C(=O)N[C@@H](CCC(=O)O)C(=O)N[C@@H](CO)C(=O)N[C@@H](CC(=O)O)C(=O)N[C@@H](CCCCN)C(=O)N[C@@H](CCCCN)C(=O)N[C@@H](CC(C)C)C(=O)N[C@@H](CCC(=O)O)C(=O)N[C@@H](CCC(=O)O)C(=O)N[C@H](C(=O)NCC(=O)N[C@@H](CO)C(=O)NCC(=O)N[C@@H](CO)C(=O)NCC(=O)N[C@@H](CCCCNC(=O)CCC(=O)O[C@H]1CC[C@@]2(C)C(=CC[C@H]3[C@@H]4CC[C@H]([C@H](C)CCCC(C)C)[C@@]4(C)CC[C@@H]32)C1)C(N)=O)C(C)C (some centres unmarked) [Compound 18] (Ac-[ξD]EFDKKKIEEVNKKIEESLKKIEESDKKLEEVGSGSGK(Succinyl(4-O-cholesteryl))-NH2) | 8.61 | 9.14 |
| CC[C@H](C)[C@H](NC(=O)[C@H](CCCCN)NC(=O)[C@H](CCCCN)NC(=O)[C@H](CC(C)C)NC(=O)[C@H](CO)NC(=O)[C@H](CCC(=O)O)NC(=O)[C@H](CCC(=O)O)NC(=O)[C@@H](NC(=O)[C@H](CCCCN)NC(=O)[C@H](CCCCN)NC(=O)[C@H](CC(N)=O)NC(=O)[C@@H](NC(=O)[C@H](CCC(=O)O)NC(=O)[C@H](CCC(=O)O)NC(=O)[C@@H](NC(=O)[C@H](CCCCN)NC(=O)[C@H](CCCCN)NC(=O)[C@H](CCCCN)NC(=O)[C@H](CC(=O)O)NC(=O)[C@H](Cc1ccccc1)NC(=O)[C@H](CCC(=O)O)NC(=O)[C@H](CC(=O)O)NC(C)=O)[C@@H](C)CC)C(C)C)[C@@H](C)CC)C(=O)N[C@@H](CCC(=O)O)C(=O)N[C@@H](CCC(=O)O)C(=O)N[C@@H](CO)C(=O)N[C@@H](CC(=O)O)C(=O)N[C@@H](CCCCN)C(=O)N[C@@H](CCCCN)C(=O)N[C@@H](CC(C)C)C(=O)N[C@@H](CCC(=O)O)C(=O)N[C@@H](CCC(=O)O)C(=O)N[C@H](C(=O)N[C@@H](CCC(=O)O)C(=O)N[C@@H](C)C(=O)N[C@@H](C)C(=O)N[C@@H](C)C(=O)N[C@@H](CCCCN)C(=O)N[C@@H](CCCCNC(=O)CCC(=O)O[C@H]1CC[C@@]2(C)C(=CC[C@H]3[C@@H]4CC[C@H]([C@H](C)CCCC(C)C)[C@@]4(C)CC[C@@H]32)C1)C(N)=O)C(C)C [Compound 22] (Ac-DEFDKKKIEEVNKKIEESLKKIEESDKKLEEVEAAAKK(Succinyl(4-O-cholesteryl))-NH2) | 20.8 | 14.4 |

— patent US20260250325A1, “Antiviral Polypeptide Membrane Fusion Inhibitor, and Preparation Method and Application Thereof” (priority 2025, published 2026)
